# From ChEMBL document CHEMBL1201862, “PubChem BioAssay data set” (2004)
#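 A five-concentration, 48-hour dose response in 96-well plates underlies each endpoint, interpolated linearly between surrounding concentrations. GI50 is the concentration that inhibits growth by half.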 The source made the active and inactive calls. Cut-off read from the data, not from the text of the source: active = GI50 up to about 1.1 µM and inactive = higher.
# Test system: NCI-H322M
# Assay: NCI tumour cell line growth inhibition, 48 h
row,SMILES,GI50
1,COc1ccc2oc(C(=O)N3CC(CCl)c4ccc(N)cc43)cc2c1 (centres undefined),inactive: 1.18 µM
2,Cc1c2cc[n+](CCN3CCCCC3)cc2c(C)c2c1[nH]c1ccc(O)cc12,inactive: 1.77 µM
3,CC1=C(SCc2ccccc2)C(=O)c2ccccc2C1=O,inactive: 27.3 µM
4,O=C1Nc2ccccc2/C1=N/NC(=S)N1CCCCC1,active: 0.0895 µM
5,CC(=O)c1c(-c2cccc3ccccc23)c(C#N)c(=S)n(C2OC(CO)C(O)C(O)C2O)c1C (centres undefined),inactive: > 100 µM
6,O=C1c2ccccc2-n2nnnc2C2CSCN12 (centres undefined),inactive: > 100 µM
7,NC(=O)C(c1ccccc1)N1OC2C(=O)N(c3ccccc3)C(=O)C2C1c1c2ccccc2c(Cl)c2ccccc12 (centres undefined),inactive: > 100 µM
8,CN(C)c1ccc(/C=C2\C[C@H]3[C@@H]4CCC5=CC(=O)CC[C@]5(C)[C@H]4CC[C@]3(C)C2=O)cc1,inactive: > 100 µM
9,Cc1nn(C)cc1P(=S)(c1ccccc1)c1ccccc1,inactive: > 100 µM
10,[N-]=[N+]=NC1(c2ccccc2)C(=O)c2cccc3c2N(CCC3)C1=O (centres undefined),inactive: 38.2 µM
11,COc1ccc(C(=O)c2nc3ccccc3nc2N2CCN(c3ccccc3)CC2)cc1OC,inactive: > 100 µM
12,CCCCCCc1ccc(CCCCCCCC(=O)O)o1,inactive: > 100 µM
13,O=[N+]([O-])c1ccc(C2=NOC(c3ccc(Cl)cc3)N2C23CC4CC(CC(C4)C2)C3)cc1 (centres undefined),inactive: > 100 µM
14,CCC(C#N)(c1ccccc1)N(CCc1ccccc1)C(=O)c1ccccc1 (centres undefined),inactive: 63.2 µM
15,CCn1ncc(Oc2c(Cl)cc(N)cc2Cl)c(Cl)c1=O,inactive: 46.8 µM
16,CCOC(=O)/C=C1\Nc2ccccc2C12CCc1c([nH]c3ccccc13)C2C(=O)OCC (centres undefined),inactive: 20.7 µM
17,CCN(CC)C(=S)N/N=C/c1ccccn1,active: < 0.01 µM
18,Nn1c(-c2ccccc2)nc2ccc(Br)cc2c1=O,inactive: 67 µM
19,C=CCN1C(=O)/C(=C/c2ccc(C)cc2)N=C1SC/C=C/C,inactive: 91.6 µM
20,Cc1nn(-c2ccccc2)c(C)c1/C=N/NC(=O)c1sc(=S)n(-c2ccc(Cl)cc2)c1N,inactive: 22.4 µM
21,CN1CCN(c2ccc3[nH]c(-c4ccc5[nH]c(CCCc6ccc(N(CCCl)CCCl)cc6)nc5c4)nc3c2)CC1,inactive: > 100 µM
22,CC(C)CCCC(C)[C@H]1CC[C@H]2[C@@H]3CC[C@H]4C[C@@H](CCC=C(c5cc(Cl)c(O)c(C(=O)OC(C)C)c5)c5cc(Cl)c(O)c(C(=O)OC(C)C)c5)CC[C@]4(C)[C@H]3CC[C@]12C (some centres undefined),inactive: > 50 µM
23,COc1cccc(C2c3cc4c(cc3OC(N3CCCCC3)C2C)OCO4)c1O (centres undefined),inactive: 5.15 µM

row,SMILES,GI50
1,Cc1ccc(-c2c(C#N)c(S)n(NS(=O)(=O)c3ccc(C)cc3)c(=O)c2C#N)cc1,inactive: 36.2 µM
2,CCCCCCN1CCc2c(C)c(C#N)c3nc4ccccc4n3c21,inactive: > 100 µM
3,COc1ccc(N2C(=O)C3c4[nH]c5ccc(OCc6ccccc6)cc5c4C4CCC(C(C)C)CC4C3C2=O)cc1 (centres undefined),inactive: > 100 µM
4,Cc1cc2c(c(C(=O)O)c1C)-c1cccc(F)c1C2=O,inactive: > 100 µM
5,S=C(NCc1ccccn1)N/N=C/c1ccccn1,active: < 0.01 µM
6,O=C1/C(=C/c2ccc(Cl)cc2)N=C(c2ccccc2)N1/N=C/c1ccccc1O,inactive: 1.56 µM
7,CN1CCc2c(sc3ncn(Nc4ccc(F)cc4)c(=N)c23)C1,inactive: > 100 µM
8,O=C(c1ccco1)N(C(=S)N1CCN(c2ccccn2)CC1)c1ccccc1,inactive: > 100 µM
9,Cc1ccc(S(=O)(=O)C2=c3ncccc3=C3C(=O)c4ccccc4C(=O)C32)cc1 (centres undefined),inactive: > 83 µM
10,COc1c2c3c4c(c(OC)c(=O)c5c(O)cc(OC)c(c6c(OC)cc(O)c(c1=O)c63)c54)C(C(C)O)C2C(C)=O (centres undefined),active: 0.782 µM
11,Oc1cc(Cl)cc2cc(Br)cnc12,inactive: 24.2 µM
12,O=C(Nc1nc2c(=O)[nH]cnc2s1)c1ccccc1,inactive: > 100 µM
13,N#Cc1c(N)c2c(c(-c3ccccc3)c1-c1ccccc1)C(=O)N(O)C2=O,inactive: 38.7 µM
14,CCN(CC)CCC1CCCCN1CC(=O)N1c2ccccc2NC(=O)c2ccccc21 (centres undefined),inactive: > 100 µM
15,COc1cc(N(CCC#N)CCC#N)ccc1/C=N\NC(=O)c1ccc(C)cc1,inactive: > 100 µM
16,O=[N+]([O-])c1ccc(Sc2c3ccccc3nc3ccccc23)cc1,inactive: > 100 µM
17,O=[N+]([O-])c1c(Br)cc(Br)c2c1Nc1c(ccc(Cl)c1Cl)S2,inactive: 13.1 µM
18,COc1ccc2[nH]c3c(C)cc([N+](=O)[O-])c(C)c3c2c1,inactive: 27.5 µM
19,NNC(=O)C(=O)N/N=C1\CCCC1C(=O)CCC(=O)Nc1cccc(Cl)c1 (centres undefined),inactive: > 100 µM
20,O=C(O)CC/C(=N\Nc1nsc2ccccc12)c1ccc(Cl)cc1,inactive: 18.8 µM
21,CC(C)OC(=S)Nc1ccc(Cl)c(/C=N/OC(C)(C)C)c1,inactive: 19.1 µM
22,O=C(NN1C(=O)C=CC1=O)c1ccccc1Nc1ccccc1C(=O)NN1C(=O)C=CC1=O,inactive: > 100 µM
23,CC(C)(C)[Si](C)(C)Oc1ccc(C2CNC(=O)C23CCC(=O)N3Cc2ccccc2)cc1 (centres undefined),inactive: 19 µM

row,SMILES,GI50
1,CN=[S+]([O-])(c1ccccc1)c1ccccc1,inactive: > 100 µM
2,O=C1CCC(c2nc3ccccc3o2)C(=O)N1 (centres undefined),inactive: > 100 µM
3,O=C(CSc1nnc(Cc2ccccc2)o1)Nc1ccc(Cl)cc1,inactive: > 100 µM
4,Cc1ccc(/C=C2\CCC/C(=C\c3ccc(O)c(CN4CCCCC4)c3)C2=O)cc1,inactive: 11.9 µM
5,CSc1nc(SC)c2c(C)cn(C3OC(C)C(O)C(O)C3O)c2n1 (centres undefined),inactive: 82.6 µM
6,COc1ccc(C2CC3(c4ccccc4)ON=C(c4ccccc4)N3c3ccccc3S2)cc1 (centres undefined),inactive: > 100 µM
7,C(=N\NC1=NCCN1)/c1ccc(-c2cn3cc(/C=N/NC4=NCCN4)ccc3n2)cc1,inactive: 15.2 µM
8,CCN1C/C(=C\c2ccc(Cl)cc2)c2nc(N)c(C#N)c(-c3ccc(Cl)cc3)c2C1,inactive: > 100 µM
9,COc1ccc(C2SCC(=O)N2c2ccc(-n3c(-c4ccccc4)nc4ccccc4c3=O)cc2)cc1OC (centres undefined),inactive: > 100 µM
10,CC(C)N(C(=O)C12C3(C(=O)C(C)(C)C)C4C5(C#N)C3C1(C(=O)C(C)(C)C)C5C42C(=O)C(C)(C)C)C(C)C (centres undefined),inactive: > 100 µM
11,c1ccc2nc(CCC3CCCCN3)ccc2c1 (centres undefined),inactive: > 100 µM
12,CCOC(=O)[C@H]1Nc2ccc(Cl)cc2[C@H]2CCC[C@@H]12,inactive: > 100 µM
13,O=C1N(C2CCCCC2)C(=O)N1C1CCCCC1,active: 0.435 µM
14,COc1cc2c3c(cc(Cl)nc3c1OC)C(O)(CC(=O)c1ccccc1)C(=O)N2 (centres undefined),inactive: 18 µM
15,C=CC1=CSNN1,inactive: > 100 µM
16,O=S(=O)(O)c1ccc(/N=N/c2ccc(/N=N/c3c(O)ccc4ccc(S(=O)(=O)O)cc34)cc2)cc1,inactive: > 100 µM
17,N#CCN1CCN(CC#N)CCN(CC#N)CCN(CC#N)CC1,inactive: > 100 µM
18,O=c1[nH]cc(COCCCO)c(=O)[nH]1,inactive: > 100 µM
19,CC(C)(C)NC(=O)N1N=C(c2ccccc2)C1c1ccccc1 (centres undefined),inactive: 62.4 µM
20,NCCCCCCNCc1cccc2ccccc12,inactive: > 100 µM
21,C#CCC(O)c1ccccc1C(O)CC#C (centres undefined),inactive: > 100 µM
22,CCOC(=O)C1C(=O)CC(O)(c2ccccc2)C(C(=O)OCC)C1c1ccc(OC)cc1 (centres undefined),inactive: 77.4 µM
23,CC(=O)OC1CC2OC(Cc3ccccc32)O1 (centres undefined),inactive: > 100 µM

row,SMILES,GI50
1,COc1ccc(C(=O)c2[nH]c(Nc3cc(C)ccn3)c(C(=S)Nc3ccccc3)c2N)cc1,inactive: 12 µM
2,Nc1c(C(=O)O)c2ccc([N+](=O)[O-])cc2c(=O)n1-c1nc2ccccc2s1,inactive: > 100 µM
3,Nn1c(CCCCCCCCc2nnc(COc3ccccc3)n2N)nnc1COc1ccccc1,inactive: > 100 µM
4,CN(C)CCOc1cc2c(c3ccccc13)-c1ccccc1C2O (centres undefined),inactive: 12.9 µM
5,CC(=O)OC/C=C(/C=C/CNC1CCCCC1)OC(C)=O,inactive: 22.5 µM
6,C/C(=N\NC(=S)NNC(=S)N(C)c1ccccc1)c1ccccn1,active: 0.524 µM
7,Cc1nc2[nH]ccn2c(=O)c1CCO,inactive: > 10 µM
8,CC(C)CCS(=O)(=O)OCCCCOS(=O)(=O)CCC(C)C,inactive: > 100 µM
9,COC(=O)c1c(C)cc2c(c1O)C1(O)C(=O)c3cc4c(c(O)c3C(=O)C1(OC)C(O)C2)C(=O)C=C(NC1OC(C)C(OC)C(O)C1OC)C4=O (centres undefined),active: 0.258 µM
10,COc1cc2ccc3c4ccccc4cnc3c2cc1OC,inactive: > 100 µM
11,Cc1cc(NS(=O)(=O)c2ccc(/N=[N+](\[O-])c3ccc(S(=O)(=O)Nc4cc(C)on4)cc3)cc2)no1,inactive: > 100 µM
12,Nc1cc(F)ccc1CC(=O)O,inactive: > 100 µM
13,O=S(=O)(O)c1ccc2c(/N=N/c3c(O)ccc4ccccc34)cccc2c1,inactive: > 100 µM
14,Cc1ccc(NC(=O)c2ccc(OP(=O)(O)Nc3ccc(C)cc3)cc2)cc1,inactive: > 100 µM
15,CC(=O)OCC(OC(C)=O)C1C[C@H]2O[C@@H]3[C@H](C[C@H]2O1)O[C@@]1(C[C@@H]3C)C[C@H](C)[C@@H]2O[C@]3(C[C@@H]2O1)C[C@H]1O[C@H]2[C@H](C)[C@H]4OC(=O)C[C@H]5CC[C@@H]6OC7[C@H]8O[C@]9(CC[C@H]%10CC(=O)[C@H](CC[C@H]%11C[C@@H](C)C(=O)C(C[C@@H]4O[C@H]2C[C@H]1O3)O%11)O%10)CC8O[C@@H]7[C@@H](O9)[C@H]6O5 (some centres undefined),active: 0.00251 µM
16,CC(=O)NC1C(OCc2ccccc2)OC(CO)C(O)C1OC(C)C(=O)NC(C)C(=O)N[C@@H](CCC(=O)OCCCNC1c2ccccc2Nc2cccc([N+](=O)[O-])c21)C(N)=O (some centres undefined),active: 0.01 µM
17,CN(CCCCCl)P(=O)(OCC1=CC(=O)c2ccccc2C1=O)OC[C@H]1O[C@@H](n2cc(F)c(=O)[nH]c2=O)C[C@@H]1O (some centres undefined),inactive: 2.47 µM
18,O=C(O)c1cc2c(s1)C(=O)c1sccc1C2=O,inactive: 10.2 µM
19,CC(C)(C)C(=O)CC(=O)C(C)(C)C.CC(C)(C)C(=O)CC(=O)C(C)(C)C.[SiH4],inactive: 2.21 µM
20,COc1ccc(CC2NCCc3c2[nH]c2ccccc32)cc1 (centres undefined),inactive: 57.9 µM
